Measurements taken from PubChem BioAssay AID624171 (National Center for Advancing Translational Sciences (NCATS), 2012).
Hit rate of the full screen: of about 410,000 compounds, about 1,200 (0.29%) were called active. Inconclusive results, whose numbers are uncertain, are shown with a selection of clear calls. The call rests on the fitted dose curve; in most records, active means well fitted activation curve with a large enough effect; inconclusive means small, poorly fitted or top-dose-only effect; inactive means flat fitted curve, though single readings scatter. Potencies beside an inconclusive call are fits to weak or partial responses and may not hold up.

Assay: qHTS of Nrf2 Activators; further: nearly all actives have a fitted effect of over 65% in size; on activation: % of control where 0% means no effect
Conditions: AREc32 ARE-luciferase reporter (MCF7-derived line), luminescence, 24 h; activation: at 46.1 µM (top of the series)
How it was run: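 Luminescent ARE reporter assay in AREc32_Fluc cells: overnight plating at 37 deg C, 24 hr compound incubation, Steady-Glo added, 30 min RT before reading.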
Potency means the concentration at half of the fitted maximal effect; tags describe the fitted curve by direction and shape.

SMILES	Potency	activation
COc1ccc(C(=O)/C=C/c2cn(CC(O)CN3CCCCCC3)c3ccccc23)cc1OC (stereo not given)	inconclusive: 22.4 µM [activator, single point]	–
CC1(C)Cc2c(cnn2-c2ccccc2)-c2c1c1ccccc1n2CC(O)CCl (stereo not given)	–	inactive: 2.69%
COc1ccccc1/C=C1\SC(=S)N(CCC(=O)N2CCN(C)CC2)C1=O	inconclusive: 11.2 µM [activator, partial curve, poor fit]	–
O=[N+]([O-])c1cc(-c2nc(-c3ccccc3)no2)ccc1NCc1ccco1	inconclusive: 10 µM [activator, partial curve]	–
COC(=O)CC1(c2cccc3ccccc23)C(=O)c2ccccc2C1=O	inconclusive: 17.8 µM [activator, single point]	–
COc1ccc(C(=O)/C=C/Sc2nc3ccccc3o2)cc1	inconclusive: 3.16 µM [activator, full curve]	–
Cc1cc(C)c2cccc(NC(=S)NC(=O)c3ccccc3)c2n1	inconclusive: 7.08 µM [activator, partial curve, poor fit]	–
CCN(CC)C(=O)CSc1n[nH]c(=O)n1CCc1ccccc1	–	inactive: 0.253%
CN(c1ccc(Br)cc1)S(=O)(=O)c1ccc2[nH]cc(C(=O)NCCN3CCOCC3)c(=O)c2c1	–	inactive: -0.803%
O=C(NCc1ccccc1)c1ccc(=O)oc1	inconclusive: 22.4 µM [activator, single point]	–
CC(=O)N1CCN(CCS(=O)(=O)c2cc(Cl)ccc2Cl)CC1	inconclusive: 17.8 µM [activator, single point]	–
CCS(=O)(=O)c1ncc(Cl)c(C(=O)Nc2ccc(S(=O)(=O)N(C)c3ccccc3)cc2)n1	inconclusive: 5.62 µM [activator, single point]	–
O=c1cc(Br)c(O)c(Br)cc1Br	inconclusive: 35.5 µM [activator, single point]	–
COc1ccc(C2CC(c3cccs3)=Nc3ccccc3S2)cc1OC (stereo not given)	inconclusive: 3.16 µM [activator, full curve, poor fit]	–
COc1ccc(N(C(=O)c2ccco2)C(C(=O)NC2CCCC2)c2ccc(N(C)C)cc2)cc1 (stereo not given)	–	inactive: -0.194%
O=C1C2C(C(=O)N1/N=C/c1ccc([N+](=O)[O-])o1)C1C=CC2C12CC2 (stereo not given)	inconclusive: 2.82 µM [activator, full curve, poor fit]	–
CCN(CCO)c1ncnc2c1sc1nc(C(C)C)c3c(c12)CC(C)(C)OC3	–	inactive: 2.33%
Cc1cc(C)n2nc(-c3ccc(Cl)cc3)cc2n1	active: 14.1 µM	–
O=C(CSc1ncnc2ccccc12)c1cccs1	inconclusive: 6.31 µM [activator, partial curve, poor fit]	–
O=[N+]([O-])c1ccc2cn(-c3ccccc3)nc2c1	inconclusive: 3.16 µM [activator, single point]	–
CC(C)(C)c1ccc(-c2noc(C(=O)NN)n2)cc1	–	inactive: -0.133%
Cc1ccc(S(=O)(=O)Oc2ccc3c(c2)O/C(=C\c2cccnc2)C3=O)cc1	–	inactive: -0.078%
CCOc1ccccc1C(=O)NCCCCNC(=O)c1ccccc1OCC	–	inactive: 0.0789%

SMILES	Potency	activation
CCCCNC(=S)N(C)/N=C/c1ccc(OCC(=O)Nc2ccc(OC)cc2)c(OC)c1	–	inactive: 0.283%
Cc1cc(=O)[nH]c(N/N=C/C2=C(N3CCOCC3)C(=C\c3ccc(Cl)cc3)/CC2)n1	inconclusive: 35.5 µM [activator, single point]	–
CN(C)CCCN(C(=O)/C=C/c1cccs1)c1nc2ccc(F)cc2s1	inconclusive: 7.08 µM [activator, full curve, poor fit]	–
Cc1cc2nc(-c3cccc(Br)c3)c(CC3CCCCC3)n2c(C)c1Br	inconclusive: 15.8 µM [activator, partial curve, poor fit]	–
CC(=O)c1c(C)[nH]c(C(=O)/C(C#N)=C/c2cccc(C)c2)c1C	–	inactive: 19.1%
COC(=O)c1sc(NC(=S)NC(=O)c2ccccc2)nc1C	inconclusive: 2.82 µM [activator, partial curve]	–
O=C(Nc1ccc(NC(=O)c2cccc([N+](=O)[O-])c2)cc1)c1cccc([N+](=O)[O-])c1	inconclusive: 11.2 µM [activator, partial curve, poor fit]	–
CCc1nc(N2CCN(C(=O)c3ccccc3)CC2)c(C#N)c2c1COC(C)(C)C2	–	inactive: 2.58%
O=Cc1c[nH]c2ccc(OCc3ccccc3)cc12	–	inactive: 0.104%
O=C(Nc1nc2ccc(F)cc2s1)c1ccc([N+](=O)[O-])o1	active: 3.16 µM	–
O=S(=O)(c1ccccc1)N1CCN(c2ccnc3cc(Cl)ccc23)CC1	–	inactive: 1.99%
CC(=O)Nc1cccc(N/C=C(\C=O)c2nc3ccccc3o2)c1	inconclusive: 3.16 µM [activator, partial curve, poor fit]	–
COc1ccccc1NC(=O)c1cc(Cl)nc2ccccc12	inconclusive: 1.58 µM [activator, full curve, poor fit]	–
Cc1ccc(CNC(=O)CS(=O)(=O)c2cccc3nsnc23)cc1	–	inactive: -0.0111%
O=C(COC(=O)/C=C/c1cccc(C(F)(F)F)c1)NC1CCS(=O)(=O)C1 (stereo not given)	inconclusive: 11.2 µM [activator, partial curve, poor fit]	–
Cc1cc(Cl)c2oc(C(=O)N3CCOCC3)c(C)c2c1	–	inactive: 7.69%
COc1ccc(-c2cc(=O)[nH][nH]2)cc1OC	inconclusive: 25.1 µM [activator, single point]	–
COc1ccc(C(=O)CCN2CCN(c3ccc(OC)cc3)CC2)cc1	inconclusive: 20 µM [activator, partial curve, poor fit]	–
Cc1ccc(N=c2c([N+](=O)[O-])nn(-c3ccccc3)n2O)c(C)c1	inconclusive: 10 µM [activator, partial curve]	–
COC(=O)c1ccc2c(=O)n(CCCCCC(=O)NCCc3ccc(Cl)cc3)c(=O)[nH]c2c1	–	inactive: -0.947%
Cc1ccc(-c2noc(-c3ccccc3C(=O)NCc3ccco3)n2)cc1	inconclusive: 6.31 µM [activator, partial curve, poor fit]	–
COc1ccc(C(=O)Nc2cc3c(cc2N2CCCCC2)n(C)c(=O)n3C)cc1OC	–	inactive: 1.23%
